The whole screen tested about 94,000 compounds, of which about 4,000 (4.3%) were called active. The shares of active, inactive and inconclusive entries below differ from those in the screen. The call rests on the fitted dose curve; in most records, active means well fitted inhibition curve with a large enough effect; inconclusive means small, poorly fitted or top-dose-only effect; inactive means no such curve, though single readings can be large or run the other way. Potencies beside an inconclusive call are fits to weak or partial responses and may not hold up.
Experiment: Cytotoxic Profiling in NIH 3T3 Cell Line of Diverse Libraries Using Quantitative High-Throughput Screening; further: nearly all actives have a fitted effect of over 55% in size
Settings: NIH 3T3 viability, CellTiter-Glo ATP luminescence, 48-72 h; activity change, negative = cytotoxicity: at 96.7 µM (top of the series); series mostly up to 96.7 µM
Method in brief: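 ATP-dependent luminescence (CellTiter-Glo) served as the viability signal for NIH 3T3 cells treated with compound for 48 or 72 hr at 37 °C.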
In the case of `COc1cncc(Nc2cnc3ccc(-c4cccc(CO)c4)nn23)c1`, the Potency was inconclusive: 56.2 µM [inhibitor, partial curve, poor fit]. With `c1ccc(C(CN2CCCC(N3CCN(c4ccccc4)CC3)C2)c2ccccc2)cc1` (centres undefined) the Potency was inconclusive: 89.1 µM [inhibitor, single point]. In the case of `CC1(C(=O)Nc2ccc(C(N)=O)cc2)CCCc2cnc(Nc3ccccc3)nc21` (centres undefined), the Potency was inconclusive: 3.55 µM [inhibitor, full curve, poor fit]. With `CN1CCCC2(C1)CN(C)c1ccc(C(=O)NCC3CCCCC3)cc12` (centres undefined) the Potency was active: 89.1 µM. For `O=c1c2nc(N3CCC(c4ccccc4)CC3)ccc2ncn1-c1cccnc1`, the Potency was inconclusive: 89.1 µM [inhibitor, partial curve, poor fit]. In the case of `COc1ccc(Cn2c(C3CCN(C(=O)COc4ccccc4)CC3)n[nH]c2=O)cc1`, the Potency was inconclusive: 50.1 µM [inhibitor, partial curve, poor fit]. With `Cn1ccc(Nc2nccc3c(=O)cc(-c4cccnc4)oc23)n1` the Potency was active: 39.8 µM. In the case of `Cc1ccccc1Cn1cc(-c2ccncc2)cc1C(=O)N(C)Cc1ccco1`, the Potency was inconclusive: 39.8 µM [inhibitor, partial curve, poor fit]. For `CCN(Cc1cnn(C)c1)C(=O)c1coc(COc2cccc(C(F)(F)F)c2)n1`, the Potency was inconclusive: 44.7 µM [inhibitor, partial curve, poor fit]. For `Cc1ccc(C(=O)N2CCC(n3c(=O)[nH]c4ccccc43)CC2)cc1`, the “activity change, negative = cytotoxicity” value was inactive: 3.45% [at 138 µM]. For `CN(CC(=O)N1CCN(Cc2ccccc2)CC(O)C1)C1CCCC1` (centres undefined), the “activity change, negative = cytotoxicity” value was inactive: -4.52%. With `CC(C)CCNC(=O)C12CCCC=C1N(c1ccccc1)C(=O)CC2` (centres undefined) the “activity change, negative = cytotoxicity” value was inactive: -7.27%. In the case of `Cc1nnc2ccc(N3CCCN(C(=O)NC(C)C)CC3)nn12`, the “outcome” value was “inactive [at 138 µM]”. For `Cn1cccc1C(=O)N1CCC(c2nc(-c3cccn3C)no2)CC1`, the Potency was inconclusive: 22.4 µM [inhibitor, full curve, poor fit]. With `CNC(=O)c1cc(C2CC2)nc2c1c(C1CCN(C(=O)C3CCCCC3)CC1)nn2C` the “activity change, negative = cytotoxicity” value was inactive: -20.7%. With `COc1cc(OC(F)(F)F)ccc1C(=O)N1CCC(C)(C(=O)O)CC1` the “activity change, negative = cytotoxicity” value was inactive: -0.0763%. With `CC(C)CN(C1CCN(C)CC1)C1CN(C(=O)c2cccs2)C1` the “activity change, negative = cytotoxicity” value was inactive: -26.1%. For `CCOc1ccccc1CNC(=O)c1noc(-c2ccc(C)cc2)n1`, the Potency was inconclusive: 39.8 µM [inhibitor, partial curve, poor fit]. For `COc1ccccc1-c1cc(-c2cccc([S+](C)(=O)[O-])c2)c2onc(C)c2n1`, the Potency was inconclusive: 35.5 µM [inhibitor, full curve].

— PubChem BioAssay AID1345082 (National Center for Advancing Translational Sciences (NCATS), 2018)
On the % scale 0 is the no-effect control and ±100 the full control effect; potency means the concentration at half of the fitted maximal effect; tags describe the fitted curve by direction and shape.
